Data taken from PubChem BioAssay AID1508642 (National Center for Advancing Translational Sciences (NCATS), 2021).
Among all 43,000 compounds or so, about 200 (0.47%) were called active. About 12% were inconclusive and are not listed. Calls come from the whole dose curve; as a rule, active = well fitted cell-killing curve with a large enough effect; inconclusive = small, poorly fitted or top-dose-only effect, or effect the other way; inactive = flat fitted curve, though single readings scatter. The list shows a part of the results.

experiment: Cell viability qHTS assay in S16 Pmp22-F2sN cells; settings: S16 Pmp22-F2sN Schwann cells (luciferase reporters placed in the Pmp22 gene) viability, CellTiter-Glo, 24 h; series mostly up to 57.5 µM; activity change, negative = cytotoxicity: at the top concentration; note: nearly all actives have a fitted effect of over 65% in size
In short: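 Seed 500-1,000 S16 Pmp22-F2sN cells per well in phenol-red-free DMEM with 10% heat-inactivated FBS; pin-add 23 nL compound; incubate 24 h at 37C; add CellTiter-Glo, wait 15 min protected from light; read luminescence.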
% is set by controls: 0 for no effect and ±100 for the full control effect.

**Q.** With COc1cccc(C2CC(=O)Nc3c2c(=O)[nH]c2nc4ccccc4n32)c1 (stereo not given) as the compound, how does the “activity change, negative = cytotoxicity” value read?
**A.** Its value is inactive: 1.19%.

**Q.** Which “activity change, negative = cytotoxicity” value does the source give for COc1ccc(Cn2c(C(=O)O)c(CNC3CCCC3)c3ccc(OC)cc32)cc1 here?
**A.** Its value is inactive: 4.55%.

**Q.** With CCn1c(=O)cc(SCC(=O)NCc2cccc(Cl)c2)c2ccccc21 as the compound, how does the “activity change, negative = cytotoxicity” value read?
**A.** Its value is inactive: -8.84%.

**Q.** For COc1ccccc1C(=O)N1c2ncnn2C2(CCCCC2)[C@@H]2CCCC[C@@H]21, which “activity change, negative = cytotoxicity” value is on record?
**A.** Its value is inactive: -13.7%.

**Q.** With CCOC(=O)c1ccc(NC(=O)C(CC)Sc2nc3ccncc3[nH]2)cc1 (stereo not given) as the compound, how does the “activity change, negative = cytotoxicity” value read?
**A.** Its value is inactive: -10.6%.

**Q.** With CCN1C(=O)c2ccccc2Sc2ccc(NC(=O)N3CCN(c4cc(C)ccc4C)CC3)cc21 as the compound, how does the “activity change, negative = cytotoxicity” value read?
**A.** Its value is inactive: -19.5%.

**Q.** With Cc1cc(C)cc(-n2c(C)cc(C(=O)C(=O)Nc3ccccc3F)c2C)c1 as the compound, how does the “activity change, negative = cytotoxicity” value read?
**A.** The value was inactive: 1.2%.

**Q.** Which “activity change, negative = cytotoxicity” value does the source give for Cc1ccc(CNC(=O)Nc2cc(C(=O)NCc3ccc(C(C)C)cc3)ccc2N2CCCC2)cc1 here?
**A.** The value was inactive: -4.51%.

**Q.** For CCCCOc1ccc(C(=O)Nc2ccc(-c3cc4ccccc4oc3=O)cc2)cc1, which “activity change, negative = cytotoxicity” value is on record?
**A.** Its value is inactive: 3.87%.

**Q.** With CC(C)c1ccc(OCC(=O)NCCS(=O)(=O)N2CCN(c3ccc(F)cc3)CC2)cc1 as the compound, how does the “activity change, negative = cytotoxicity” value read?
**A.** The value was inactive: 10.4%.

**Q.** With Cc1c(Cl)cccc1NC(=O)c1ccc2c(c1)CCCN2S(C)(=O)=O as the compound, how does the “activity change, negative = cytotoxicity” value read?
**A.** The value was inactive: -5.01%.

**Q.** With CCOc1ccc(-c2nn(-c3ccccc3)cc2C2NC(=O)NC(C)=C2C(=O)OC(C)C)cc1 (stereo not given) as the compound, how does the “activity change, negative = cytotoxicity” value read?
**A.** Its value is inactive: -0.679%.

**Q.** For COc1ccccc1NC(=O)CSc1nncn2c1cc1sccc12, which “activity change, negative = cytotoxicity” value is on record?
**A.** Its value is inactive: 13.8%.

**Q.** Which “activity change, negative = cytotoxicity” value does the source give for Cc1ccccc1CNC(=O)c1ccc2nc(SCc3ccc(F)cc3)n(C)c2c1 here?
**A.** The value was inactive: -0.672%.

**Q.** For CCOCCCNC(=O)C(c1ccccc1)N(Cc1ccc2c(c1)OCO2)C(=O)c1ccc(NC(C)=O)cc1 (stereo not given), which “activity change, negative = cytotoxicity” value is on record?
**A.** Its value is inactive: -1.18%.

**Q.** Which “activity change, negative = cytotoxicity” value does the source give for CCc1ccccc1NC(=O)Cn1cc(S(=O)(=O)N2CCCC2)c(S(=O)(=O)N2CCCC2)c1 here?
**A.** Its value is inactive: -0.751%.

**Q.** With O=C(c1ccco1)N(Cc1cccnc1)c1nc2c(F)cc(F)cc2s1 as the compound, how does the “activity change, negative = cytotoxicity” value read?
**A.** Its value is inactive: -12.6%.

**Q.** Which “activity change, negative = cytotoxicity” value does the source give for Cc1ccc2cccc(NC(=O)c3ccc(OC(C)C)cc3)c2n1 here?
**A.** The value was inactive: -17.3%.

**Q.** With O=C(NCc1ccc2c(c1)OCO2)c1ccc2c(c1)N(Cc1ccccc1F)C(=O)c1ccccc1S2 as the compound, how does the “activity change, negative = cytotoxicity” value read?
**A.** The value was inactive: 1.24%.

**Q.** For Cc1ccccc1CN1C(=O)c2ccccc2S(=O)c2ccc(C(=O)NCc3ccc(Cl)cc3)cc21 (stereo not given), which “activity change, negative = cytotoxicity” value is on record?
**A.** The value was inactive: -17%.

**Q.** With CCCOc1ccc(-c2cccc(NS(=O)(=O)c3ccccc3)c2)nn1 as the compound, how does the “activity change, negative = cytotoxicity” value read?
**A.** Its value is inactive: 0.86%.

**Q.** Which “activity change, negative = cytotoxicity” value does the source give for Cc1ccc(-n2ncc3c(NCc4ccccc4)ncnc32)cc1Cl here?
**A.** The value was inactive: -1.15%.

**Q.** With Cc1ccc(-n2ccn(CC(=O)NCCc3ccccc3)c(=O)c2=O)cc1C as the compound, how does the “activity change, negative = cytotoxicity” value read?
**A.** The value was inactive: 1.15%.

**Q.** For CCCCOc1ccc(C(=O)N(Cc2ccc(N(C)C)cc2)Cc2ccco2)cc1, which “activity change, negative = cytotoxicity” value is on record?
**A.** The value was inactive: 1.86%.

**Q.** For CC(C)(C)c1ccc(-c2nc(NC(=O)CSc3ncnc4sc5c(c34)CCCC5)ns2)cc1, which “activity change, negative = cytotoxicity” value is on record?
**A.** The value was inactive: -3.57%.

**Q.** With COc1ccc(NC(=O)CN(C)S(=O)(=O)c2ccc3c(c2)CCCN3C(C)=O)cc1 as the compound, how does the “activity change, negative = cytotoxicity” value read?
**A.** The value was inactive: -9.63%.

**Q.** With CCc1ccc(NC(=O)CSc2nccn2-c2ccc(F)cc2)cc1 as the compound, how does the “activity change, negative = cytotoxicity” value read?
**A.** Its value is inactive: -11.2%.

**Q.** For COc1ccc(N2CC(NC(=O)/C=C\c3ccc4c(c3)OCO4)CC2=O)cc1OC (stereo not given), which “activity change, negative = cytotoxicity” value is on record?
**A.** The value was inactive: 14.3%.

**Q.** For Cc1ccccc1Cn1c(SCc2ccc(C(=O)NC3CCCCC3)cc2)nc2ccncc21, which “activity change, negative = cytotoxicity” value is on record?
**A.** The value was inactive: 16.2%.

**Q.** With CC(C)N(Cc1nc(-c2ccc(Cl)cc2)no1)C(=O)c1ccc(C(C)(C)C)cc1 as the compound, how does the “activity change, negative = cytotoxicity” value read?
**A.** The value was inactive: 10.7%.

**Q.** For O=C(NCCc1csc(-c2cccnc2)n1)c1cccc(Cl)c1, which “activity change, negative = cytotoxicity” value is on record?
**A.** The value was inactive: -4.37%.

**Q.** Which “activity change, negative = cytotoxicity” value does the source give for Cc1ccc2ncc(C(=O)c3ccc(C)c(C)c3)c(S(=O)(=O)c3ccc(F)cc3)c2c1 here?
**A.** Its value is inactive: -24.3%.

**Q.** With CCOc1ccc(CC(=O)NCCc2sc3nc(-c4ccc(F)cc4)nn3c2C)cc1 as the compound, how does the “activity change, negative = cytotoxicity” value read?
**A.** The value was inactive: -4.7%.

**Q.** With CC1=C(c2ccc(Cl)cc2)S(=O)(=O)N=C1N1CCN(c2cccc(C)c2C)CC1 as the compound, how does the “activity change, negative = cytotoxicity” value read?
**A.** Its value is inactive: -1.24%.

**Q.** With COc1cccc(CN2C(=O)c3ccccc3Sc3ccc(C(=O)OCc4ccco4)cc32)c1 as the compound, how does the “activity change, negative = cytotoxicity” value read?
**A.** Its value is inactive: 18.5%.

**Q.** With Cc1cccc(NC(=O)CSc2nc3ccc(NC(=O)c4ccccc4)cc3s2)c1 as the compound, how does the “activity change, negative = cytotoxicity” value read?
**A.** Its value is inactive: 11.2%.

**Q.** Which “activity change, negative = cytotoxicity” value does the source give for CCOc1ccc(-c2cc3nc(C4CCN(C(=O)OC(C)(C)C)CC4)c(C(=O)Nc4cccc(CC)c4)cn3n2)cc1 here?
**A.** Its value is inactive: 13.6%.

**Q.** For CC(=O)N1c2ccc(S(=O)(=O)N3CCCCCC3)cc2CC1C(=O)NCc1cccc(C)c1 (stereo not given), which “activity change, negative = cytotoxicity” value is on record?
**A.** Its value is inactive: 0.191%.

**Q.** For COc1cc(NC(=O)Cn2c(=O)cc(C)c3c(C)nn(-c4ccc(C)cc4)c32)cc(OC)c1, which “activity change, negative = cytotoxicity” value is on record?
**A.** The value was inactive: 21%.

**Q.** Which “activity change, negative = cytotoxicity” value does the source give for Cc1ccc(CNc2nnc(C)c3nnn(Cc4ccc(F)cc4)c23)cc1 here?
**A.** The value was inactive: -7.22%.

**Q.** With CCC(=O)Oc1c(Sc2ccc(Cl)cc2)c(C)nn1-c1ccccc1 as the compound, how does the “activity change, negative = cytotoxicity” value read?
**A.** The value was inactive: 3.63%.

**Q.** Which “activity change, negative = cytotoxicity” value does the source give for CCOc1ccc(NC(=O)CSC2=Nc3ccccc3C3=NC(CCC(=O)NCc4ccco4)C(=O)N23)cc1 (stereo not given) here?
**A.** Its value is inactive: 6.99%.

**Q.** For Cc1ccc(-c2nc(CS(=O)(=O)CC(=O)Nc3ccc(Br)cc3F)c(C)o2)cc1, which “activity change, negative = cytotoxicity” value is on record?
**A.** The value was inactive: -1.57%.

**Q.** Which “activity change, negative = cytotoxicity” value does the source give for NC(=O)c1c(NC(=O)CS(=O)(=O)c2ccc(Cl)cc2)sc2c1CCCCC2 here?
**A.** The value was inactive: -3.45%.

**Q.** Which “activity change, negative = cytotoxicity” value does the source give for Cc1ccc(Nc2c(-c3ccc(Br)o3)nc3ccccn23)cc1 here?
**A.** The value was inactive: 0.846%.

**Q.** For COc1ccc(S(=O)(=O)NCc2nc3nc(C)cc(C)n3n2)cc1, which “activity change, negative = cytotoxicity” value is on record?
**A.** Its value is inactive: -7.69%.

**Q.** Which “activity change, negative = cytotoxicity” value does the source give for COc1ccc2oc(=O)c(-c3nnc(-c4ccc(C)cc4)o3)cc2c1 here?
**A.** Its value is inactive: -5.69%.

**Q.** With CCN(CC)S(=O)(=O)c1ccc2c(c1)N(CC(=O)NCc1ccccc1)C(=O)C1CCCCN21 (stereo not given) as the compound, how does the “activity change, negative = cytotoxicity” value read?
**A.** Its value is inactive: -13.8%.

**Q.** Which “activity change, negative = cytotoxicity” value does the source give for Cc1cc2c(cc1S(=O)(=O)Nc1ccc(OC(F)(F)F)cc1)OCC(=O)N2 here?
**A.** The value was inactive: -17.2%.

**Q.** For Cc1cc(Cl)ccc1NS(=O)(=O)c1c(C(=O)N2CCC(C)CC2)c(C)n(C)c1C, which “activity change, negative = cytotoxicity” value is on record?
**A.** Its value is inactive: 0.65%.

**Q.** For CC1CCCN(c2nc3c(-c4ccc(Cl)cc4)nnn3c3ccccc23)C1 (stereo not given), which “activity change, negative = cytotoxicity” value is on record?
**A.** Its value is inactive: -0.183%.

**Q.** For CCn1cc(S(=O)(=O)c2cccc(C)c2)c(=O)c2cc(F)c(N3CCCC(C)C3)cc21 (stereo not given), which “activity change, negative = cytotoxicity” value is on record?
**A.** The value was inactive: -13.1%.

**Q.** With O=C(c1ccc2c(c1)N(Cc1ccccc1F)C(=O)c1ccccc1S2(=O)=O)N1CCN(c2ccccn2)CC1 as the compound, how does the “activity change, negative = cytotoxicity” value read?
**A.** Its value is inactive: 20.8%.

**Q.** For CCOc1ccc(CNC(=O)C2CCCCN2S(=O)(=O)c2ccc(F)cc2)cc1OC (stereo not given), which “activity change, negative = cytotoxicity” value is on record?
**A.** The value was inactive: -15.6%.

**Q.** Which “activity change, negative = cytotoxicity” value does the source give for O=C(CCC(=O)c1ccc(F)cc1)Nc1ccc(Cl)cc1 here?
**A.** The value was inactive: 0.333%.

**Q.** Which “activity change, negative = cytotoxicity” value does the source give for O=C(CSc1n[nH]c(-c2ccccc2Cl)n1)NCc1ccc(F)cc1 here?
**A.** Its value is inactive: -2.41%.

**Q.** Which “activity change, negative = cytotoxicity” value does the source give for COc1ccc(-c2nc3c(c(SC)n2)Cc2c(CO)cnc(C)c2O3)cc1 here?
**A.** Its value is inactive: 12.9%.

**Q.** With CCn1c(=O)c2cc(C(=O)NCCCN3CCN(C)CC3)sc2c2ccccc21 as the compound, how does the “activity change, negative = cytotoxicity” value read?
**A.** Its value is inactive: 11.8%.

**Q.** Which “activity change, negative = cytotoxicity” value does the source give for Cc1cc(C)cc(OCC(=O)Nc2c(C(=O)c3ccccc3)oc3ccccc23)c1 here?
**A.** Its value is inactive: 10.8%.

**Q.** For O=C(CCn1c(=O)c2cccn2c2cccnc21)Nc1ccccc1C(F)(F)F, which “activity change, negative = cytotoxicity” value is on record?
**A.** Its value is inactive: 4.44%.
